Laboratory results taken from PMC6018503.
These are yes or no findings as the source states them, for the method shown. For some assays here: In cells and extracts the contact can be indirect. Some results given as binding are weak or reduced against the parent protein; the word gives no strength.

Protein sequences, listed by entry. Tags and fused reporters are not part of them. Lines headed by an entry give the natural chain unless they say otherwise; changes in a name come on top.
UniProt Q9FXM3: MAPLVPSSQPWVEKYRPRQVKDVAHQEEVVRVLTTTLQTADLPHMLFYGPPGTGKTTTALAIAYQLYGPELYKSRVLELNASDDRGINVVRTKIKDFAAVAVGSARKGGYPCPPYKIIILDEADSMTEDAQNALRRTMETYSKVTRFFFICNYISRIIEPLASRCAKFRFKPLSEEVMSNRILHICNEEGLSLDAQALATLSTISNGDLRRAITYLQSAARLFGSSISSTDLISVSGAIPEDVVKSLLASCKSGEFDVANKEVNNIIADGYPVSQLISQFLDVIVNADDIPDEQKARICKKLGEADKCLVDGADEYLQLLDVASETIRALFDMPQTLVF

Tests used:
[1] = molecular target: T1, OsRFC3 (rice (Oryza sativa)) (UniProt Q6YZ54); test: split reporter; BiFC; YFP^N (aa 1-155) and YFP^C (aa 156-239) fusions (pCAMBIA-SPYNE, pCAMBIA-SPYCE) co-expressed in tobacco (Nicotiana benthamiana) leaf epidermal cells through Agrobacterium GV3101; confocal microscopy of YFP; only the two named fusions
T1 sequence: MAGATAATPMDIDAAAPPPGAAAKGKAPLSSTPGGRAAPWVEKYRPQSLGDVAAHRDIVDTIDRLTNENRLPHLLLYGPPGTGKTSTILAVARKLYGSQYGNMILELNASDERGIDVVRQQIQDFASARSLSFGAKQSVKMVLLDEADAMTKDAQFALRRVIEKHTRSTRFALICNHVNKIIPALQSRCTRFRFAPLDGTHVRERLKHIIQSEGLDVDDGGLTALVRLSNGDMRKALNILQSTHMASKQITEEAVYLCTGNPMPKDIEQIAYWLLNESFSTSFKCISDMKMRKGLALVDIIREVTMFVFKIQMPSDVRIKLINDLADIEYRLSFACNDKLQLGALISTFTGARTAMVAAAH

[2] = molecular target: T2, OsRFC1 (rice (Oryza sativa)) (UniProt Q2R2B4); test: as above
T2 sequence: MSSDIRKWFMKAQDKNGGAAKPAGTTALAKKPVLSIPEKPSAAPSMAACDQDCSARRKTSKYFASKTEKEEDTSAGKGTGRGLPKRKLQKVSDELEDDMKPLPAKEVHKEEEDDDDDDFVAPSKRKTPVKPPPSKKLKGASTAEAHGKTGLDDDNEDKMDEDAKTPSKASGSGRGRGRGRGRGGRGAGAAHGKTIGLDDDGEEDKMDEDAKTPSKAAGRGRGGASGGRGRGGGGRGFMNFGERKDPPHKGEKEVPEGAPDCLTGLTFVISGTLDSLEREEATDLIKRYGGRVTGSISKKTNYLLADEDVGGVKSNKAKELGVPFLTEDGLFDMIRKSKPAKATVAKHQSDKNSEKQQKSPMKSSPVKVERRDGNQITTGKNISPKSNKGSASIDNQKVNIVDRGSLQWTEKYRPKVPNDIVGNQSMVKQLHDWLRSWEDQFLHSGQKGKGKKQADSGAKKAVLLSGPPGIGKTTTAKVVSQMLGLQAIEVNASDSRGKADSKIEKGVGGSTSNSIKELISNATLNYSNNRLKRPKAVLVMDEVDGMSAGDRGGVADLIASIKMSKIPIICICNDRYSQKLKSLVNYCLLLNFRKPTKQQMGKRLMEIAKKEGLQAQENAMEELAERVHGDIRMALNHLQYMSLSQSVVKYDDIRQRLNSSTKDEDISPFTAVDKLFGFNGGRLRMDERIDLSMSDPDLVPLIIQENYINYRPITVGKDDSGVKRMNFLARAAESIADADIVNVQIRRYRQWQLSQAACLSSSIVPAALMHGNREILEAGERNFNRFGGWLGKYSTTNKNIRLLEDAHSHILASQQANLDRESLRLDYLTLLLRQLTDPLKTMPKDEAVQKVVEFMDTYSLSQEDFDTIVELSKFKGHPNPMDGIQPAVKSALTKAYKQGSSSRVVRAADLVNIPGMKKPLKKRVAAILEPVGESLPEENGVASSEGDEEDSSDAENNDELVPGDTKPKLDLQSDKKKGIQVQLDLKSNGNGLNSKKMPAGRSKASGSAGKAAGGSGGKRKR

[3] = molecular target: T3, OsRFC5 (rice (Oryza sativa)) (UniProt Q852K3); test: as above
T3 sequence: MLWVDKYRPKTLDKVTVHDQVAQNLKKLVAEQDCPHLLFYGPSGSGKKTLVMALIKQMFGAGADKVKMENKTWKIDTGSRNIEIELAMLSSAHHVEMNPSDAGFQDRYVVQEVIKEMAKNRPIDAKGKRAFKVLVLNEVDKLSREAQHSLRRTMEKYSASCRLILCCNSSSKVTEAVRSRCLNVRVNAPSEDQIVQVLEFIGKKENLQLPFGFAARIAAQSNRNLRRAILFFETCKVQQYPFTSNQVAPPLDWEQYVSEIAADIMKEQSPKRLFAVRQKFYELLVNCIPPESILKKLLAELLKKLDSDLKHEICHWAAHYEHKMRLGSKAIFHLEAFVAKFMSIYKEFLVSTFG

[4] = molecular target: T4, AtRFC2 (Arabidopsis thaliana) (UniProt Q9CAM7); test: as above
T4 sequence: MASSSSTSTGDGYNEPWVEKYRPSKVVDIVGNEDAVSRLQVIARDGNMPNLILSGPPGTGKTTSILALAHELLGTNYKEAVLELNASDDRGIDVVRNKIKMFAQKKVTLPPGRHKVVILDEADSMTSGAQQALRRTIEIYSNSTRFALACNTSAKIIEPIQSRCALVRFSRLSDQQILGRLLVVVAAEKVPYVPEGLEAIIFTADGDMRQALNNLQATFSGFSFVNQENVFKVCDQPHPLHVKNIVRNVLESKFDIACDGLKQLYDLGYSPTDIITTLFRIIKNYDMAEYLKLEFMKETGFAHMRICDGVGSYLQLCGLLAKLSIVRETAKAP

[5] = molecular target: T5, AtRFC5 (Arabidopsis thaliana) (UniProt Q8VXX4); test: as above
T5 sequence: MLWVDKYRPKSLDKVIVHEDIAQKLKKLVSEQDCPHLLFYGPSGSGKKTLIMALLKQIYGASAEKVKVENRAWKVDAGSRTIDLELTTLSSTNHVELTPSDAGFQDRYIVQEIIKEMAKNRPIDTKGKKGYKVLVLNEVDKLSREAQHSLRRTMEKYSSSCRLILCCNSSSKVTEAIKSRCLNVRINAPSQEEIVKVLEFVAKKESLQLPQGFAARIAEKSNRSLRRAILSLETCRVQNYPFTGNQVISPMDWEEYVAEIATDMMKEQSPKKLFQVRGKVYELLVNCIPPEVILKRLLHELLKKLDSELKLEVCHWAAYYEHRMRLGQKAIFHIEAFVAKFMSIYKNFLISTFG

[6] = molecular target: T1, OsRFC3 (rice (Oryza sativa)); test: two-hybrid; yeast two-hybrid; full-length ORFs in pGADT7 (AD) and pGBKT7 (BD); co-transformed strains spotted on SD-L-T and SD-L-T-H-A plates; empty AD or BD plasmids as negative controls
[7] = molecular target: T6, OsRFC4 (rice (Oryza sativa)) (UniProt Q7XRX1); test: as above
T6 sequence: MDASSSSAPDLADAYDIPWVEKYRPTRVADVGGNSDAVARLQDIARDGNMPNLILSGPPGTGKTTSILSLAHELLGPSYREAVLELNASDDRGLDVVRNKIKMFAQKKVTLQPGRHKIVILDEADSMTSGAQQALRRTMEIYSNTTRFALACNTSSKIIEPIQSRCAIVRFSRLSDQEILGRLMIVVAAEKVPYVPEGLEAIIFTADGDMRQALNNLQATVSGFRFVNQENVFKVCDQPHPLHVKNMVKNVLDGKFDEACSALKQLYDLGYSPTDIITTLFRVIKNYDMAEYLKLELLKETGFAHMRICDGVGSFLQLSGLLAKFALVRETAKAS

[8] = molecular target: T3, OsRFC5 (rice (Oryza sativa)); test: as above
[9] = molecular target: T4, AtRFC2 (Arabidopsis thaliana); test: split reporter; BiFC; YFP^N (aa 1-155) and YFP^C (aa 156-239) fusions (pCAMBIA-SPYNE, pCAMBIA-SPYCE) co-expressed in tobacco (Nicotiana benthamiana) leaf epidermal cells through Agrobacterium GV3101; confocal microscopy of YFP; only the two named fusions; remark: listed apart in the source
[10] = molecular target: T5, AtRFC5 (Arabidopsis thaliana); test: as above; remark: listed apart in the source
[11] = molecular target: T4, AtRFC2 (Arabidopsis thaliana); test: split reporter; BiFC in tobacco leaf epidermal cells with truncated AtRFC proteins, pairs that include AtRFC1 or a truncated AtRFC1; whether the other small subunits were co-expressed is not said
[12] = molecular target: AtRFC4 (Arabidopsis thaliana) (UniProt Q93ZX1); test: as above
[13] = molecular target: T5, AtRFC5 (Arabidopsis thaliana); test: as above

| Molecule | binding [1] | binding [2] | binding [3] | also measured |
| --- | --- | --- | --- | --- |
| OsRFC2 Δ320–339 (from UniProt Q9FXM3 1-319) (domain or fragment) | binds | binds | no binding |  |
| OsRFC2 Δ240–339 (from UniProt Q9FXM3 1-239) (domain or fragment) | no binding | no binding | no binding |  |
| OsRFC2 Δ300–339 (from UniProt Q9FXM3 1-299) (domain or fragment) | binds | no binding | no binding |  |
| OsRFC2 (from UniProt Q9FXM3 1-339) |  | binds |  | binding [4]: binds; binding [5]: binds; binding [6]: binds; binding [7]: no binding; binding [8]: binds |
| AtRFC4 Δ1–213 (domain or fragment, UniProt Q93ZX1 214-339) ITYLQSATRLFGSTITSTDLLNVSGVVPLEVVNKLFTACKSGDFDIANKEVDNIVAEGYPASQIINQLFDIVAEADSDITDMQKAKICKCLAETDKRLVDGADEYLQLLDVASSTICALSEMAQDF |  |  |  | binding [9]: binds; binding [10]: binds |
| AtRFC1 Δ1-457 (domain or fragment, UniProt Q9C587 458-956) MAANFDRSKHPKTVLIMDEVDGMSAGDRGGVADLIASIKISKIPIICICNDRYSQKLKSLVNYCLPLNYRKPTKQQMAKRLMHIAKAEGLEINEIALEELAERVNGDIRLAVNQLQYMSLSMSVIKYDDIRQRLLSSAKDEDISPFTAVDKLFGYNGGKLRMDERIDLSMSDPDLVPLLIQENYLNYRPSGKDEAKRMDLLARAAESIADGDIINVQIRRYRQWQLSQSCCVASSILPASLLHGSREVLEQGERNFNRFGGWLGKNSTAGKNRRLMEDLHVHVLASRESSAGRETLRVDYLPLLLSRLTSPLQTLPKDEAVSEVVDFMNSYSISQEDFDTILELGKFKGRENPMEGVPPPVKAALTKKYNEMNKTRMVRVADMVQLPGVKKAPKKRIAAMLEPTVDSLRDEDGEPLADNEEGNGSDAEEDSEEATDGEKLESNLKNLNARGIQVELDLKGAGSSGSRKAAGKGRGRGKAADTSAEKKATGRGSGAKRKR |  |  |  | binding [11]: no binding; binding [12]: no binding; binding [13]: no binding |
